Data published in PubChem BioAssay AID588342 (National Center for Advancing Translational Sciences (NCATS), 2011).
The whole screen tested about 360,000 compounds, of which about 25,000 (6.9%) were called active. Inconclusive results, whose numbers are uncertain, are shown with a selection of clear calls. Calls follow the shape of the dose curve; as a rule, active = well fitted inhibition curve with a large enough effect; inconclusive = small, poorly fitted or top-dose-only effect; inactive = flat fitted curve, though single readings scatter. Potencies of inconclusive entries are doubtful fits and often do not repeat.

Each compound was assayed against Luciferin 4-monooxygenase (Photinus pyralis) (UniProt P08659) (assay: qHTS profiling assay for firefly luciferase inhibitor/activator using purifed enzyme and Km concentrations of substrates (counterscreen for miR-21 project)). Conditions: purified FLuc, luminescence inhibition; series mostly up to 57.5 µM.
UniProt P08659, sequence (P08659 whole entry, looked up): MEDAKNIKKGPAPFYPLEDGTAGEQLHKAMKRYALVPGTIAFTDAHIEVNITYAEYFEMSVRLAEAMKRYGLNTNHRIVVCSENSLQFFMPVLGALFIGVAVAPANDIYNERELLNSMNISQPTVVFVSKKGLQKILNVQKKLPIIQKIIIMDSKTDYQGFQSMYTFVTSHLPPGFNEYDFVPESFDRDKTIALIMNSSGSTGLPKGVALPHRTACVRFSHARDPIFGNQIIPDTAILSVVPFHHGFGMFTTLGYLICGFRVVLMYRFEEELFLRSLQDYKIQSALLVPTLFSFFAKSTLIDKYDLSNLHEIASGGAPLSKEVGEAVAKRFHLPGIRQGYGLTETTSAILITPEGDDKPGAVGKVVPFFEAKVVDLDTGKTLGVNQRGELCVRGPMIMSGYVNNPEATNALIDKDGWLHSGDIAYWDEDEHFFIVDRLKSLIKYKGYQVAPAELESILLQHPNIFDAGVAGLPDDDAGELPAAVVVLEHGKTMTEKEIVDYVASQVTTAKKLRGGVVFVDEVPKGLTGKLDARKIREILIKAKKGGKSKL
Procedure, shortened: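 Purified P. pyralis luciferase (10nM final) with 10uM D-luciferin and 10uM ATP (Km levels) in 50mM Tris acetate pH 7.5, 10mM Mg acetate, 0.01% Tween-20, 0.05% BSA; qHTS 6-point titration, ~60 µM downward; luminescence read.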
Also: nearly all actives have a fitted effect of over 55% in size.
Potency is read from the fitted curve at half-maximal effect; tags tell the direction and shape of the fitted curve.

SMILES | Potency
O=C(Cc1ccccc1)NN1C(=O)/C(=C/c2ccc(C(=O)O)cc2)SC1=S | inconclusive: 26.9 µM [inhibitor, single point]
O=C(CSC1=NS(=O)(=O)c2ccccc2N1)Nc1ccccc1F | inconclusive: 37.9 µM [inhibitor, partial curve, poor fit]
COc1ccc(S(=O)(=O)Nc2c(C(=O)O)[nH]c3ccc(OC)cc23)c(OC)c1 | inconclusive: 37.9 µM [inhibitor, single point]
CC(=O)Nc1ccc(S(=O)(=O)Nc2nc3ccccc3nc2Nc2ccc(O)cc2)cc1 | inconclusive: 37.9 µM [inhibitor, single point]
Cc1cccc(NC(=O)C2(c3ccc([N+](=O)[O-])cc3)CCCC2)c1 | inactive
CC1(C)Oc2ccc(C(=O)Nc3ccccc3)cc2N(CC#N)C1=O | inconclusive: 30.1 µM [inhibitor, partial curve, poor fit]
Cc1cccc(/C=N/NC(=O)Cc2cccs2)c1 | inconclusive: 19 µM [inhibitor, partial curve]
O=C(CN1CCN(S(=O)(=O)N2CCOCC2)CC1)Nc1cc(Cl)ccc1Cl | inactive
COc1ccc(OCc2cc(C(=O)N(C)C3CCOC3)no2)c(Cl)c1 (centres undefined) | inconclusive: 30.1 µM [inhibitor, partial curve, poor fit]
COc1ccccc1-c1nnc(SC/C(O)=C(\C#N)c2nc3ccccc3[nH]2)n1C1CCCCC1 | inconclusive: 23.9 µM [inhibitor, single point]
COc1ccc(-c2csc(C3=C(O)CN(C(C)C)C3=N)n2)cc1OC | active: 10.7 µM
COc1ccc(CNC(=O)C(=O)NC2CC(C)(C)NC(C)(C)C2)cc1 | inactive
Cc1ccc(OCCSc2nc3ccccc3n2CCC(=O)O)cc1C | inconclusive: 23.9 µM [inhibitor, partial curve]
COc1ccc(/C=C(\NC(=O)c2ccccc2)C(=O)NC2CCCCC2)cc1 | inactive
Cc1ccn2cc(CNC(=O)c3cccs3)nc2c1 | inactive
COCCNC(=O)c1ccc2c(c1)nc(C)n2-c1cccc(Cl)c1 | inactive
O=C(CSc1nncs1)NC(=O)Nc1ccc2c(c1)OCCO2 | active: 15.1 µM
COc1ccc(-c2nc(SCC(=O)NC3CCCC3)c(-c3ccccc3)[nH]2)cc1OC | active: 19 µM
CCOC(=O)CN1C(=O)S/C(=C/c2ccc3c(c2)n(C)c(=O)n3C)C1=O | inconclusive: 37.9 µM [inhibitor, partial curve, poor fit]
S=c1nc(-c2ccccc2)[nH]n1-c1ccccc1 | inconclusive: 37.9 µM [inhibitor, partial curve, poor fit]
CC(=O)c1cccc(-n2c(CCC(=O)O)ccc2-c2ccccc2)c1 | inconclusive: 23.9 µM [inhibitor, partial curve, poor fit]
O=C(Nc1cccc(-c2csc(Nc3cccc(C(F)(F)F)c3)n2)c1)c1ccccc1 | inconclusive: 23.9 µM [inhibitor, partial curve, poor fit]
CCOc1ccccc1C(=O)N1CCc2cc(OC)c(OC)cc2C1COc1ccc2c(C)cc(=O)oc2c1 (centres undefined) | inactive
Cc1ccc(-n2ncc3c(Nc4ccc5c(c4)OCCO5)ncnc32)cc1C | inconclusive: 23.9 µM [inhibitor, single point]
CSC1=C(C#N)C(c2ccccc2Cl)C2=C(N1)c1ccccc1C2=O (centres undefined) | inactive

SMILES | Potency
CCOC(=O)C1CCCN(c2ncnc3c2cnn3-c2ccc(OC)cc2)C1 (centres undefined) | inconclusive: 21.3 µM [inhibitor, partial curve]
O=C(NNC(=O)C1C2CCCCC21)c1coc(=O)c(Br)c1 (centres undefined) | inconclusive: 23.9 µM [inhibitor, partial curve]
CC(/C=N/Nc1nncc(=O)[nH]1)=C\c1ccccc1 | inconclusive: 12 µM [inhibitor, partial curve, poor fit]
NC(=O)c1ccccc1OCc1nnc(-c2ccccc2Br)o1 | inconclusive: 26.9 µM [inhibitor, partial curve]
C/C(=N\NC(=O)c1cc(-c2ccco2)nc2ccccc12)c1cccnc1 | active: 13.5 µM
Cc1ccsc1/C=C/c1ccc2ccccc2n1 | active: 1.69 µM
CCN(CC)c1ccc2c(c1)OC(N)=C(C#N)C2c1cccnc1 (centres undefined) | inconclusive: 33.8 µM [inhibitor, partial curve, poor fit]
CC(C)(C)c1ccc(C(=O)NC(=S)Nc2nc3c(s2)CCCC3)cc1 | active: 5.36 µM
CN(C)c1nc(N/N=C/c2ccccc2O)nc(Nc2ccc(F)cc2)n1 | inconclusive: 21.3 µM [inhibitor, partial curve, poor fit]
Cc1cccc(CC(C)NC(=O)c2cc(COc3ccc(C)c(C)c3)on2)n1 (centres undefined) | active: 21.3 µM
Cc1cc(/C=C(\C#N)C(=O)OCC(=O)NC(=O)NC(C)(C)C)c(C)n1CCC(C)C | inconclusive: 26.9 µM [inhibitor, single point]
Cn1c(Cl)c(C(=O)Nc2ccc(Cl)cc2)c2ccccc21 | active: 6.01 µM
Cc1noc(C)c1CSc1nnc(-c2ccccc2)o1 | inconclusive: 23.9 µM [inhibitor, partial curve, poor fit]
CN1CCS/C1=C\C=C1/SC(=S)N(CC(=O)O)C1=O | active: 13.5 µM
CCCCN(CCCC)S(=O)(=O)c1ccc(NC(=O)c2c(-c3ccccc3)noc2C)cc1 | inactive
COc1ccc(CNC(=O)CN(Cc2ccccc2F)C(=O)c2csnn2)cc1 | inactive
O=c1sc2ccccc2n1COc1ccc(Cl)cc1 | active: 19 µM
O=C(Nc1ncccc1O)c1ccc(OCC2CCCO2)cc1 (centres undefined) | active: 7.57 µM
Cc1csc(NC(=O)/C=C/c2ccco2)n1 | active: 6.75 µM
Cc1oc(-c2ccc(C(=O)N(C)Cc3ccccc3)cc2)nc1CN1CCc2ccccc21 | inactive
CCOC(=O)c1cccc(NC(=O)N2Cc3ccccc3Oc3ncccc32)c1 | inactive
Cc1cccc(NN=C2c3ccccc3-c3ccccc32)c1 | inconclusive: 23.9 µM [inhibitor, partial curve, poor fit]
CCOc1cccc(NC(=O)CSc2ncc(-c3ccc(Cl)cc3)[nH]2)c1 | inconclusive: 21.3 µM [inhibitor, partial curve, poor fit]
Cc1csc(NC(=O)c2cc(-c3ccco3)nc3ccccc23)n1 | inconclusive: 21.3 µM [inhibitor, partial curve]
COC(=O)c1ccc(NC(=O)c2cccc(N3C(=O)C4C5C=CC(C6CC56)C4C3=O)c2)cc1 (centres undefined) | inconclusive: 33.8 µM [inhibitor, single point]

SMILES | Potency
O=C1NC(=O)/C(=C/c2ccccn2)S1 | inconclusive: 37.9 µM [inhibitor, single point]
CCN(CC(=O)NC1CCS(=O)(=O)C1)C(=O)c1ccc(OC)c([N+](=O)[O-])c1 (centres undefined) | inactive
CC(=O)/C(C#N)=C1\NC(=O)C(Cc2ccc(C)c(C)c2)S1 (centres undefined) | active: 21.3 µM
O=C1c2ccccc2S(=O)(=O)N1CCOc1ccccc1 | inconclusive: 37.9 µM [inhibitor, single point]
Cn1nnc2cc(C(=O)NCCC3=CCCCC3)ccc21 | active: 5.36 µM
O=C(CSc1nnc(-c2ccccc2Cl)o1)N1CCCCC1 | active: 15.1 µM
Cc1nc(N)sc1-c1csc(N(C)c2ccc(O)cc2)n1 | active: 4.78 µM
COc1ccc(CNC(=O)c2cc(-c3ccccc3OC)on2)cc1 | active: 16.9 µM
Fc1ccccc1CSc1nnnn1-c1ccc2c(c1)OCO2 | inconclusive: 30.1 µM [inhibitor, partial curve, poor fit]
C/C=C/c1ccc(OCCSc2nc(C)cc(=O)[nH]2)c(OC)c1 | active: 13.5 µM
CCOC(=O)c1sc(NNC(=O)c2ccc(F)cc2)nc1C | inconclusive: 26.9 µM [inhibitor, partial curve]
O=C1c2ccccc2C(=O)c2c(NCCCN(CCO)CCO)cccc21 | inconclusive: 19 µM [inhibitor, single point]
COc1ccc(/C=N/NC(=O)c2ccoc2C)cc1COc1c(C)cccc1C | inconclusive: 37.9 µM [inhibitor, partial curve, poor fit]
CCOCCc1nn2c(=O)cc(COC(=O)c3ccccc3NC(=O)c3cccs3)nc2s1 | inactive
CCCN1CN=C(Nc2nc3ccccc3o2)NC1 | inconclusive: 37.9 µM [inhibitor, single point]
CCc1ccccc1NC(=O)N1CC(CC)Oc2ccc(Cl)cc21 (centres undefined) | inconclusive: 13.5 µM [inhibitor, partial curve]
CCOC(=O)COc1ccc2cc(C(=O)OCC)c(=O)oc2c1 | inactive
Cc1cc(Cl)ccc1OCC(=O)Nc1ccc(CN2CCOCC2)cc1 | inconclusive: 37.9 µM [inhibitor, partial curve, poor fit]
COc1ccc(Nc2nc(N)nc(CSc3nnc(C)s3)n2)cc1 | active: 26.9 µM
COc1ccc(N2CCN(C(=O)c3c(C)nn(-c4ccc(F)cc4)c3-n3cccc3)CC2)cc1 | inactive
COc1ccc(/C=C2\SC(=Nc3ccccc3)NC2=O)cc1 | active: 7.57 µM
O=C(NC1CC(=O)N(c2ccccc2)C1)c1cccs1 (centres undefined) | inactive
COc1ccccc1OCC(=O)Nc1ccc(Cl)cc1 | inconclusive: 21.3 µM [inhibitor, partial curve]
N#C/C(=C(\O)c1ccco1)c1ccccn1 | inconclusive: 37.9 µM [inhibitor, single point]
